Assay results from PubChem BioAssay AID504333 (National Center for Advancing Translational Sciences (NCATS), 2011).
The whole screen tested about 360,000 compounds, of which about 16,000 (4.4%) were called active. Inconclusive results, whose numbers are uncertain, are shown with a selection of clear calls. Calls come from the whole dose curve; as a rule, active = well fitted inhibition curve with a large enough effect; inconclusive = small, poorly fitted or top-dose-only effect; inactive = no such curve, though single readings can be large or run the other way. Potencies beside an inconclusive call are fits to weak or partial responses and may not hold up.

These molecules were tested against Bromodomain adjacent to zinc finger domain protein 2B (Homo sapiens) (UniProt Q9UIF8) (assay: qHTS Assay for Inhibitors of BAZ2B). Conditions: AlphaScreen BAZ2B-H3K14Ac peptide displacement; activity change, negative = inhibition: at 114 µM (top of the series).
Chain of UniProt Q9UIF8 (Q9UIF8 whole entry, looked up, the tested form may be a part): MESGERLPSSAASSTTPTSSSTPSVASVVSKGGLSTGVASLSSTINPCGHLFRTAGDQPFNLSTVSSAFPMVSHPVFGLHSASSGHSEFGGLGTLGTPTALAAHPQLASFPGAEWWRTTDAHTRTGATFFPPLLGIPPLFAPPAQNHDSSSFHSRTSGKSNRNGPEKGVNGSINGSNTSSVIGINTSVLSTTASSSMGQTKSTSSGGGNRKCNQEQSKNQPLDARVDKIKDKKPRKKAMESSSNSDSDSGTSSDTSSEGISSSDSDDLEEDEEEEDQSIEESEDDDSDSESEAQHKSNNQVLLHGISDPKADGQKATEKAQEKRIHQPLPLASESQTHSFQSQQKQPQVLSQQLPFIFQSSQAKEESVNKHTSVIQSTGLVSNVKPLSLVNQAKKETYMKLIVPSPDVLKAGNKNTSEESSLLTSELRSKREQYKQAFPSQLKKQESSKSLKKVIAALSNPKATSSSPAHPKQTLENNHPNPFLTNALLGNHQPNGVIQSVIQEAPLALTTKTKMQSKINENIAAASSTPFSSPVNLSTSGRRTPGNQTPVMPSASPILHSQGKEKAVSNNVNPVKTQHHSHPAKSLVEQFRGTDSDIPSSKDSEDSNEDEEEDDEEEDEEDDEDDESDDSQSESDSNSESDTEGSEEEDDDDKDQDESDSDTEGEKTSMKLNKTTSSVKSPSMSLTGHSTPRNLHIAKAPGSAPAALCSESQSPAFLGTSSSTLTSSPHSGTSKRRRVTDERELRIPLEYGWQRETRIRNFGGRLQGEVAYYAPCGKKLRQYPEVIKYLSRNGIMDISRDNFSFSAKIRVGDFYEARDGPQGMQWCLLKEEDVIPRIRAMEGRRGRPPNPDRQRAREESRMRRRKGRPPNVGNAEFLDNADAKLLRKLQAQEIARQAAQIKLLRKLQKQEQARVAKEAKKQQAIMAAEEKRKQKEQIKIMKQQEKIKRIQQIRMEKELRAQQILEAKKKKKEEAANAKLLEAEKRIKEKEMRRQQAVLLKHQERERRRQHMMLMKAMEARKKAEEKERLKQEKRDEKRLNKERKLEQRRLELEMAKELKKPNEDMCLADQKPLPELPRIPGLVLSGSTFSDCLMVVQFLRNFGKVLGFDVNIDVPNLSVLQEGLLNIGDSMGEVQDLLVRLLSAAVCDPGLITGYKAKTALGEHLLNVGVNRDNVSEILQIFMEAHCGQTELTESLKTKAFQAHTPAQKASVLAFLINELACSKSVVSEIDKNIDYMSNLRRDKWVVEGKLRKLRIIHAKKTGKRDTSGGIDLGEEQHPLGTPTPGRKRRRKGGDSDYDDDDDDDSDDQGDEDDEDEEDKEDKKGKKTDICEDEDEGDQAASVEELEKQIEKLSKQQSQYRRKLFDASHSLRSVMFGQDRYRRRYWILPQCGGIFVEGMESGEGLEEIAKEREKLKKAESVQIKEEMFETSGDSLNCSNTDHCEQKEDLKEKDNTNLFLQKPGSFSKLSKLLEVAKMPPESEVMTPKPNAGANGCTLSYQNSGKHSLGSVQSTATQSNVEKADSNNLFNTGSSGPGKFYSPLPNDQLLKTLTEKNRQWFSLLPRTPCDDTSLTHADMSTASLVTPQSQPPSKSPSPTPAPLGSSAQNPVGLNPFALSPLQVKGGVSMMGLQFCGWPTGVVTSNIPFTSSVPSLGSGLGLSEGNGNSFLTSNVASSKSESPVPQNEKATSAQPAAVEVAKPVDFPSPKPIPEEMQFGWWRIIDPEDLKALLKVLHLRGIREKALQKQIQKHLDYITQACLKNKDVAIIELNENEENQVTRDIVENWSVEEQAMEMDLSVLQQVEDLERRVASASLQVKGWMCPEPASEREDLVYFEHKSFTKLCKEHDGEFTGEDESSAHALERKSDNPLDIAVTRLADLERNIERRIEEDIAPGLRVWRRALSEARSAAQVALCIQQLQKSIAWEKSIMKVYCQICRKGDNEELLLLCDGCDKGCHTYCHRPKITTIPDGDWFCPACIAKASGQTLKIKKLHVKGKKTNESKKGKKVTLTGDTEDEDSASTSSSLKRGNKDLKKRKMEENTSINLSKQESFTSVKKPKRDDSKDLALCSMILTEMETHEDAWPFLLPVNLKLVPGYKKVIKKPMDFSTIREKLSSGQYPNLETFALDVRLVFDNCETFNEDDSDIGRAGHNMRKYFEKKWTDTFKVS
In short: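 In this displacement format the biotinylated H3(5-23) peptide acetylated at Lys14 serves as ligand at 50 nM, with BAZ2B at 50 nM in PBS pH 7.4 containing 0.01% Tween-20. Donor and acceptor beads are 10 ug/mL final.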
% is set by controls: 0 for no effect and ±100 for the full control effect; potency is the fitted concentration of half-maximal effect; tags give direction and shape of the fitted curve.
Note: nearly all actives have a fitted effect of over 60% in size.

SMILES	activity change, negative = inhibition	Potency
COCc1cc(C)nc(Nc2ccccc2OC)c1C#N	inactive: 9.13%	
CN(C(=O)C1CCCO1)c1nnc(-c2cnccn2)s1 (centres undefined)	inactive: -2.89%	
COc1ccc(CN(CCC(c2ccc(F)cc2)C2CCOC(C)(C)C2)C(=O)c2ccco2)cc1 (centres undefined)		inconclusive: 10 µM [inhibitor, full curve]
C#Cc1ccc([C@@H]2C=C(C(=O)N3CCN(Cc4ccc5c(c4)OCO5)CC3)O[C@H](OCCCCO)C2)cc1		inconclusive: 79.4 µM [inhibitor, single point]
Oc1ccc(-c2csc(-c3ccccc3)n2)cc1O		active: 56.2 µM
O=c1oc2cc(OCc3ccc(F)cc3F)ccc2cc1-c1ccc2ccccc2n1	inactive: -24.6%	
Cc1cc(Cl)c(OCCCNC2CCCC2)c(Br)c1		inconclusive: 89.1 µM [inhibitor, single point]
CCOc1ccc(/C=C/c2nc(C#N)c(N(C)C)o2)cc1		inconclusive: 50.1 µM [inhibitor, partial curve]
COc1ccc(N2CCN(C(CNC(=O)c3ccc(C)cc3)c3ccc4c(c3)OCO4)CC2)cc1 (centres undefined)		active: 20 µM
COc1ccc(NC2CCCN(C(=O)c3cccnc3SC)C2)cc1OC (centres undefined)		inconclusive: 89.1 µM [inhibitor, single point]
Cc1[nH]c(-c2ccc3c(c2)OCO3)nc1C(=O)O		active: 50.1 µM
Cn1c(C(=O)N2CCC(C(=O)N3CCN(Cc4ccc5c(c4)OCO5)CC3)CC2)cc2sccc21		inconclusive: 89.1 µM [inhibitor, single point]
Cc1ccc2sc(N(CCCN(C)C)C(=O)c3ccc(S(=O)(=O)N(C)C4CCCCC4)cc3)nc2c1C		inconclusive: 22.4 µM [inhibitor, full curve]
CN(C)CCCn1c(=O)n(Cc2ccccc2)c(=O)c2c3c(sc21)CCCCC3		inconclusive: 39.8 µM [inhibitor, full curve, poor fit]
O=C(c1ccc(-n2cccn2)cc1)N1CCc2c([nH]c3ccccc23)C1c1ccccn1 (centres undefined)		inconclusive: 25.1 µM [inhibitor, partial curve]
Cc1cc(NC(=O)CSc2nc(N)c(NC(=O)c3ccccc3F)c(=O)[nH]2)no1		inconclusive: 100 µM [inhibitor, single point]
COc1cccc(CNC(=O)C2CCCN(S(=O)(=O)c3cccc4nonc34)C2)c1 (centres undefined)		inconclusive: 89.1 µM [inhibitor, single point]
COc1ccc(Nc2ccncc2[N+](=O)[O-])cc1		inconclusive: 39.8 µM [inhibitor, partial curve]
Cc1cc(C)c(OCCNCc2ccccc2)c(C)c1		active: 50.1 µM
CCc1ccc2oc(-c3cc(N)ccc3Cl)nc2c1		inconclusive: 89.1 µM [inhibitor, single point]
CCOC(=O)c1cc2cc3ccccc3cc2[nH]1		inconclusive: 89.1 µM [inhibitor, single point]
COc1ccc2[nH]cc(CCNC(=S)NC3CCCC3)c2c1		inconclusive: 50.1 µM [inhibitor, partial curve]
O=C(COC(=O)c1ccc(S(=O)(=O)NCc2ccco2)cc1)Nc1ccccc1	inactive: 9.54%	

SMILES	activity change, negative = inhibition	Potency
Cc1ccc(NC2CCCN(C(=O)c3cn4cc(Cl)ccc4n3)C2)cc1C (centres undefined)		inconclusive: 89.1 µM [inhibitor, single point]
Cn1nnnc1SCCNC/C=C/c1ccccc1	inactive: -15.4%	
N#C/C(=C\c1ccc(O)c(O)c1)C(=O)Nc1ccccc1		active: 12.6 µM
Cc1ccc(C(=O)Nc2ccc(C(=O)N/N=C/c3ccccn3)cc2)cc1	inactive: 20.1%	
Brc1ccc(C2=Nc3cccc4cccc(c34)N2)o1		inconclusive: 44.7 µM [inhibitor, partial curve, poor fit]
O=C(Nc1cccc(Cl)c1)C1CCCN(c2cnccn2)C1 (centres undefined)		inconclusive: 100 µM [inhibitor, partial curve]
O=C(Cc1c[nH]c2ccccc12)N1CCc2ccccc21		inconclusive: 79.4 µM [inhibitor, single point]
Brc1ccccc1OCCCCCN1CCOCC1		active: 56.2 µM
CC(C)CN(C(=O)c1ccco1)c1nc2ccccc2s1		inconclusive: 89.1 µM [inhibitor, single point]
O=[N+]([O-])c1ccc(N2CCN(C(=S)c3cccc([N+](=O)[O-])c3)CC2)cc1		active: 56.2 µM
Cc1ccc(NC(=O)C2(NC(=O)c3ccccn3)CCCCC2)cc1Br		inconclusive: 100 µM [inhibitor, single point]
Cc1nc2c(C(=O)NCc3ccco3)cnn2c(C)c1Cc1ccc(F)cc1Cl		inconclusive: 89.1 µM [inhibitor, single point]
Cc1nc2c(C)cccn2c1/C(O)=C1\C(=O)C(=O)N(CCN(C)C)C1c1ccncc1 (centres undefined)		inconclusive: 89.1 µM [inhibitor, single point]
CCCCN1C(=O)C(O)(c2c(C)[nH]c3ccccc23)c2cc(Br)ccc21 (centres undefined)		inconclusive: 39.8 µM [inhibitor, partial curve]
COc1cc(/C=C2/CCCC(C(=O)C(F)(F)F)=C2O)ccc1O		inconclusive: 79.4 µM [inhibitor, single point]
CCC(C)NCCOCCOc1ccc(C)cc1OC (centres undefined)		inconclusive: 89.1 µM [inhibitor, single point]
O=C(CCCC1=NS(=O)(=O)c2ccccc2N1)N1CCN(c2ccc([N+](=O)[O-])cc2)CC1		inconclusive: 39.8 µM [inhibitor, single point]
COC(=O)[C@@]1(Cc2ccc(F)cc2)[C@H]2c3cc(C(=O)N(C)C)n(Cc4ccc(OC)c(OC)c4)c3C[C@H]2CN1C(=O)c1ccccc1		inconclusive: 44.7 µM [inhibitor, partial curve]
COc1ccc(C(=O)NCCN2CCOCC2)cc1[N+](=O)[O-]	inactive: 8.34%	
Cc1ccc(NC(=O)COC(=O)c2cccc3c2C(=O)c2ccccc2C3=O)c(C)c1		inconclusive: 12.6 µM [inhibitor, full curve]
Cc1ccc(CSc2nnc(SCC(=O)N/N=C/c3ccccc3OCC(=O)O)s2)cc1		inconclusive: 50.1 µM [inhibitor, partial curve]
c1ccc(-n2ncc3c(N4CCN(c5ccccn5)CC4)nc(N4CCCCCC4)nc32)cc1		inconclusive: 44.7 µM [inhibitor, partial curve]
COC(=O)c1ccn(CC(=O)NC2CCCCC2)n1		inconclusive: 89.1 µM [inhibitor, single point]

SMILES	activity change, negative = inhibition	Potency
NC(=O)CSc1nc(C2CC2)nc2sc3c(c12)CCCC3	inactive: -1.22%	
CS(=O)(=O)N(Cc1ccccc1)c1ccc(C(=O)NCCSCc2ccco2)cc1		inconclusive: 79.4 µM [inhibitor, single point]
Cc1cccc(Cc2c(C)nc3c(C(=O)NCc4ccco4)cnn3c2C)c1		inconclusive: 50.1 µM [inhibitor, partial curve]
Cc1ccc(NC(C)c2cc(Cl)ccc2O)cc1 (centres undefined)		active: 50.1 µM
Cc1cc(C)c(Cn2c3ccccc3c3cnn(CC(=O)NC4CCC(C)CC4)c(=O)c32)c(C)c1 (centres undefined)	inactive: 4.83%	
O=C(Cn1c(=O)oc2cc(S(=O)(=O)N3CCCCC3)ccc21)Nc1cccc(Cl)c1		inconclusive: 89.1 µM [inhibitor, single point]
CCOC(=O)CSc1ccc(S(=O)(=O)N(C)C2CCCCC2)cc1[N+](=O)[O-]		inconclusive: 44.7 µM [inhibitor, partial curve]
CC(C)c1ccc(C2N3CC4(C)CN2CC(c2ccccc2)(C3)C4=O)cc1 (centres undefined)	inactive: -4.13%	
Cc1sc(NC(=O)CSc2nnc(-c3ccc(F)cc3)o2)c(C#N)c1C		inconclusive: 89.1 µM [inhibitor, single point]
CSc1ccc(Cl)c(C(=O)Nc2ccc(N3CCOCC3)cc2)c1		inconclusive: 31.6 µM [inhibitor, full curve]
O=C(NNC(=O)c1ncc(Cl)c(Cl)c1Cl)c1ccc(F)cc1	inactive: -4.15%	
COc1ccc(N2CCN(Cc3nc(N)nc(Nc4ccccc4OC)n3)CC2)cc1		active: 28.2 µM
COc1ccccc1C(=O)NC(=S)N1CCCc2ccccc21		inconclusive: 56.2 µM [inhibitor, partial curve, poor fit]
N#C/C(=C\c1c(N2CCN(Cc3ccccc3)CC2)nc2ccccn2c1=O)S(=O)(=O)c1ccccc1		inconclusive: 3.16 µM [inhibitor, full curve]
CC(C)(CNC(=O)Cc1ccc(NS(=O)(=O)c2cccc(C(F)(F)F)c2)cc1)N1CCOCC1	inactive: -4.75%	
CC(=O)c1cc(O)c2ccccc2c1O		active: 44.7 µM
Cc1ccc(C)c(OCCCNC2CCCC2)c1C		inconclusive: 89.1 µM [inhibitor, single point]
CC(C)Cn1c(O)c(/C=C2\C=NN=C2c2ccccc2)sc1=S		inconclusive: 20 µM [inhibitor, full curve]
Cc1ccc(C(=O)C[n+]2ccccc2C)cc1[N+](=O)[O-]		inconclusive: 89.1 µM [inhibitor, single point]
CC1=CC(C)(C)Nc2ccc(OC(=O)CCN3C(=O)c4ccccc4C3=O)cc21		active: 35.5 µM
COc1cc(-c2noc(CN3CCN(c4ccccc4)CC3)n2)cc(OC)c1OC		inconclusive: 12.6 µM [inhibitor, partial curve]
COC(=O)CCSCC(=O)N1N=C(c2ccc(OC)cc2)CC1c1cccc(OC)c1OC (centres undefined)		inconclusive: 79.4 µM [inhibitor, partial curve]
N#Cc1ccccc1OCCCNC1CCCC1		inconclusive: 39.8 µM [inhibitor, partial curve]
